“And” between values parts separate entries of the source, which are not always exact repeats. Identical values can stand only once. About 740 (0.21%) of roughly 360,000 compounds were called active. This list was built around the results that the source calls inconclusive (neither active nor inactive); the mix of calls is not that of the screen. Calls follow the shape of the dose curve; as a rule, active = well fitted inhibition curve with a large enough effect; inconclusive = small, poorly fitted or top-dose-only effect; inactive = no such curve, though single readings can be large or run the other way. Where the call is inconclusive, the potency comes from a doubtful curve fit.
What follows are compounds tested on Plasmodium falciparum AMA1 (3D7) - RON2 peptide interaction (assay: qHTS for Inhibitors of AMA1-RON; Towards Development of Antimalarial Drug Lead: Primary Screen). Details: AlphaScreen AMA1-biotinylated RON2 peptide binding; activity change, negative = inhibition: at 58.2 µM (top of the series) unless noted.
Summary of the method: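 AMA1 (3D7) with his tag at 25 nM final met compounds first, then biotinylated RON2 peptide at 25 nM; detection used donor plus acceptor beads, 10 µg/mL apiece, read by AlphaScreen after 30 min at room temperature.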
Also: nearly all actives have a fitted effect of over 45% in size.
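For activity change, negative = inhibition in this document: 0% = vehicle wells and -100% = peptide control.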
Potency is read from the fitted curve at half-maximal effect; tags tell the direction and shape of the fitted curve.

Structure (SMILES)	activity change, negative = inhibition	Potency
O=[N+]([O-])c1ccc(CN2CCCCCC2)cc1	inactive: -7.74%	
CN(C)CCN(C(=O)c1ccc2c(c1)CCCC2)c1nc2cc3c(cc2s1)OCCO3		inconclusive: 28.2 µM [inhibitor, single point]
COc1ccc(Cn2cnc3c(N)c(C)c(C)cc32)cc1		inconclusive: 11.2 µM [inhibitor, partial curve]
CCc1ccccc1NC(=S)NCC1CCN(c2ccc(OC)cc2)C1 (stereo not given)	inactive: -79.8%	
Cc1ccc2c(c1)C1CN(C)CCC1N2Sc1ccccc1[N+](=O)[O-] (stereo not given)		inconclusive: 17.8 µM [inhibitor, partial curve]
CN(C)c1ccc(N=Nc2ccc(S(=O)(=O)O)cc2)c2ccccc12		inconclusive: 25.1 µM [inhibitor, single point]
CC1=C(C(=O)OCCNC(=O)c2ccccc2O)C(c2ccccc2[N+](=O)[O-])C(C(=O)OCC2CCCO2)=C(C)N1 (stereo not given)		inconclusive: 20 µM [inhibitor, partial curve]
CCN(Cc1ccc(N(C)C)cc1)C(C)C(=O)Nc1ccc(S(=O)(=O)N2CCCC2)cc1 (stereo not given)		inconclusive: 39.8 µM [inhibitor, single point]
NC(CO)C(=O)NNCc1ccc(O)c(O)c1O (stereo not given)		inconclusive: 7.94 µM [inhibitor, single point]
COc1ccc(N2CCN(c3oc(COc4ccccc4Cl)nc3C#N)CC2)cc1		inconclusive: 7.94 µM [inhibitor, partial curve]
CC(=O)Oc1cc2cccc(OC(C)=O)c(=O)c2c(OC(C)=O)c1OC(C)=O		active: 1.78 µM
COc1cc(CNCCc2c[nH]c3ccccc23)cc(OC)c1		inconclusive: 28.2 µM [inhibitor, partial curve]
O=[N+]([O-])c1cc(S(=O)(=O)C(F)(F)F)ccc1N1CCN(c2ccccc2)CC1		inconclusive: 11.2 µM [inhibitor, partial curve]
O=C(/C=C/c1ccccc1[N+](=O)[O-])c1ccccc1Br		inconclusive: 25.1 µM [inhibitor, single point]
O=CN/C=C/c1cc(O)ccc1O		inconclusive: 14.1 µM [inhibitor, partial curve]
O=C(NNC(=O)c1cc2ccccc2o1)c1ccncc1		inconclusive: 4.47 µM [inhibitor, single point]
Cc1ccc(-c2cn3c(n2)SCC3)cc1	inactive: -6.04%	
Cc1cc(C)c(C(=O)CN2C(=O)NC3(CCCCCC3)C2=O)cc1C		inconclusive: 8.91 µM [inhibitor, single point]
COc1cccc(/C=C2\SC(=S)N(C(Cc3ccccc3)C(=O)O)C2=O)c1 (stereo not given)	inactive: -6.62%	
CCCCOc1c(Cl)cc(C(=O)N2CCN(CC(=O)N3CCCC3)CC2)cc1OCC	inactive: -5.93%	
Fc1ccc([C@@H]2CCNC[C@H]2COc2ccc3c(c2)OCO3)cc1		inconclusive: 28.2 µM [inhibitor, single point] and inconclusive: 39.8 µM [inhibitor, single point] and inconclusive: 22.4 µM [inhibitor, partial curve]
O=C1NC(=O)C(=Cc2ccc(-c3ccc(F)cc3O)o2)C(=O)N1		inconclusive: 20 µM [inhibitor, single point]
CC1CCCCN1C(=O)c1cc2nc(-c3ccccc3)cc(-c3ccccc3)n2n1 (stereo not given)	inactive: 54.6%	
COc1ccc2nc3oc(C(=O)NC4CCN(Cc5ccccc5)CC4)cc3cc2c1	inactive: -10.9%	

Structure (SMILES)	activity change, negative = inhibition	Potency
COc1cc(OC)c(OC)cc1/C=C1\CCC(C2CCCC2)C1=O (stereo not given)		inconclusive: 39.8 µM [inhibitor, partial curve]
Cc1cccc(NC(=O)CN2CCc3cc4c(cc3C2)OCCCO4)c1		inconclusive: 28.2 µM [inhibitor, single point]
COc1cccc(CN2CCN(Cc3cccc(Oc4ccccc4)c3)CC2)c1OC		inconclusive: 11.2 µM [inhibitor, partial curve]
COc1cc(/C=N/n2nnnc2N)ccc1OCc1c(C)no[n+]1[O-]	inactive: 0%	
Cc1cc(NC(=O)CSc2nnc(COc3ccccc3)n2Cc2ccco2)no1		inconclusive: 8.44 µM [inhibitor, single point]
Cc1n[nH]c(=S)n1-c1ccc(Cl)cc1	inactive: 33.5%	
CC(C)CN(Cc1c(O)ccc2ccccc12)CC(C)C	inactive: -14.5%	
CC(=O)N(Cc1ccc(F)cc1)C1=C(NCCc2ccccc2)C(=O)c2ccccc2C1=O		inconclusive: 14.1 µM [inhibitor, single point]
C=CCN1C(=O)/C(=C2/Sc3ccccc3N2C)SC1=Nc1ccccc1C	inconclusive: -10.8% [inhibitor]	
COc1ccc(C(=O)Nn2cnnc2)cc1		inconclusive: 44.7 µM [inhibitor, partial curve, poor fit]
CCN(CC)c1ccc(NC(=O)CNCc2ccccc2Cl)c(C)c1		inconclusive: 28.2 µM [inhibitor, single point]
O=C1/C(=C/c2ccco2)SC(=S)N1c1cccnc1		inconclusive: 14.1 µM [inhibitor, single point]
CCCCNC(=O)C1CC(c2cccc([N+](=O)[O-])c2)=NO1 (stereo not given)	inactive: 0%	
CCOCCCNCc1cc(Cl)cc(Cl)c1OCC	inactive: -1%	
OC(c1ccccc1)(c1ccccc1)C1CCN(CCCOc2ccc3c(c2)CCCC3)CC1		inconclusive: 25.1 µM [inhibitor, partial curve]
CN1C(=O)C(CC(=O)Nc2ccc(F)cc2)N(CCCc2ccccc2)C1=S (stereo not given)		inconclusive: 39.8 µM [inhibitor, single point]
C#CCOc1c(Br)cc(/C=N/O)cc1OCC	inactive: 12.2%	
CCCc1c(C(=O)NNc2ccc(C)cc2)cnn1-c1ccccc1		inconclusive: 15.8 µM [inhibitor, partial curve]
Cc1cc(O)c(C(C)C)cc1N=Cc1ccc(N(C)C)cc1		inconclusive: 39.8 µM [inhibitor, partial curve]
Cc1ccc(S(=O)(=O)NNC(=S)NC(C)(C)C)cc1		inconclusive: 39.8 µM [inhibitor, single point]
O=C(NCc1ccc(Cl)cc1)c1ccc(CSc2nc3ccncc3[nH]2)cc1	inactive: 8.43%	
COC(=O)N/N=C\c1ccccc1OC/C=C/c1ccccc1	inactive: 4.08%	
COc1ccccc1C1C2C(=O)N(c3ccccc3)C(=O)C2ON1c1ccccc1 (stereo not given)	inactive: 0%	
COc1ccc(NS(=O)(=O)c2cccc(C(=O)NCc3ccccc3CN3CCCC3)c2)cc1	inactive: 0.597%	

Structure (SMILES)	activity change, negative = inhibition	Potency
O=C(Nc1ccc2c(c1)OCCO2)c1cccc(S(=O)(=O)N2CCOCC2)c1		inconclusive: 37.7 µM [inhibitor, single point]
CCOc1ccc(OCC)c(NC(=O)CN2CCN(c3cc(C)ccc3C)CC2)c1		inconclusive: 16.8 µM [inhibitor, partial curve]
CCNS(=O)(=O)c1ccc(CCC(=O)N2CCN(c3ccccc3)CC2)cc1		inconclusive: 3.55 µM [inhibitor, single point]
COC(=O)N1CCCCC1c1cc(C(=O)Nc2cccc3c2CCCC3)no1 (stereo not given)	inactive: -3.16%	
COc1ccc(CNC(=O)C[C@H]2C[C@H](C(=O)N3CCCCC3)[C@@]3(C)c4[nH]c5cc(-c6ccco6)ccc5c4CCN3C2=O)cc1OC		inconclusive: 39.8 µM [inhibitor, single point]
COc1ccc(N2C(=O)C3CCCN3C2=S)cc1 (stereo not given)		inconclusive: 28.2 µM [inhibitor, single point]
Cc1nc2ccc(NC(=O)N(C)c3ccccc3)cc2s1	inactive: -14.4%	
O=C(c1ccco1)N1CCC2CC1c1c(Cl)cccc12 (stereo not given)		inconclusive: 7.08 µM [inhibitor, partial curve]
CCOc1ccc(-n2c(-c3cccs3)nc3ccccc3c2=O)cc1	inactive: -5.28%	
O=C(O)c1oc2ccc(Br)cc2c1-n1cccc1		inconclusive: 21.2 µM [inhibitor, partial curve]
CCN(CC)c1ccc(C(=S)NC2CCCCC2)cc1		inconclusive: 28.2 µM [inhibitor, partial curve]
CCOc1cc2c(cc1OCC)-n1cccc1C(c1ccccc1OC)NC2 (stereo not given)		inconclusive: 6.31 µM [inhibitor, partial curve]
CSc1ccc(OC2CCN(Cc3ccccc3)CC2)cc1		inconclusive: 39.8 µM [inhibitor, partial curve, poor fit]
Cc1csc(Nc2ccc(Cl)cc2)[n+]1-c1ccc(Cl)cc1		inconclusive: 14.1 µM [inhibitor, partial curve]
C[C@@H]1CN([C@@H](C)CO)C(=O)c2cc(Br)cnc2O[C@H]1CN(C)C(=O)Cc1cccnc1		inconclusive: 3.16 µM [inhibitor, partial curve]
Fc1ccc(-c2[nH]ncc2CN2CCN(c3ccc(F)cc3)CC2)cc1		inconclusive: 28.2 µM [inhibitor, single point]
C[n+]1cc[nH]c1SCC(=O)c1ccc(Cl)cc1		inconclusive: 3.98 µM [inhibitor, single point]
CC(C)c1ccc(/C=N/NC(=O)c2nnn(-c3nonc3N)c2CSC2=NCCS2)cc1	inactive: 2%	
Nc1ccc(N2CCN(CCCCN3C(=O)C4CCCN4C3=O)CC2)cc1 (stereo not given)		inconclusive: 31.6 µM [inhibitor, single point]
C/C(CC(=O)Nc1ccc(OCc2ccccc2)cc1)=N\NC(=O)C(=O)Nc1ccccc1C	inactive: 27.2%	
CN(C)S(=O)(=O)c1ccc(N2CCCC2)c(C(=O)NC2CCCCC2)c1	inactive: -1.85%	
CCc1ccc(C(c2c(C)nn(-c3ccccc3)c2N)c2c(C)nn(-c3ccccc3)c2N)cc1		inconclusive: 39.8 µM [inhibitor, single point]

From PubChem BioAssay AID720542 (National Center for Advancing Translational Sciences (NCATS), 2013)
